Data on 153 variants can be found in a collection of fitness landscapes (doi:10.1016/j.celrep.2020.107928).

To fix the notation:
B1: Caulobacter ParB omega fusion; a variant is named by its letters at X, in order, B8GW30 (parent)
chain: MESVVVGEPGMSEGRRGLGRGLSALLGEVDAAPAQAPGEQLGGSREAPIEILQRNPDQPRRTFREEDLEDLSNSIREKGVLQPILVRPSPDTAGEYQIVAGERAWRAAQRAGLKTVPIMVRELDDLAVLEIGIIENVQRADLNVLEEALSYKVLMEKFERTQENIAQTIGKSXSHVANXMRLLXLPDEVQSYLVSGELTAXHARAIAAAADPVALAKQIIEGGLSVRETEALARKAPNLSAGKSKGGRPPRVKDTDTQALESDLSSVLGLDVSIDHRGSTGTLTITYATLEQLDDLCNRLTRGI

Over roughly 81,000 sequences, “one-hybrid fitness for binding NBS DNA” has its median near -0.1; the highest 2% begin near 0.36. Some of the results follow. Some results are limits rather than exact numbers.

The variants in this experiment derive from B1. The experiment is described as follows: one-hybrid fitness for binding NBS DNA (the Noc-binding site; scaled: cognate 1, non-cognate 0); higher = stronger binding. Particulars: with NBS DNA site. Summed up:
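The reporter was HIS3, with the binding site 19 bp from the promoter, in E. coli USO used for bacterial one-hybrid selection of Caulobacter ParB libraries with four specificity codons randomised. Growth was on M9 lacking histidine, with 0.1 mM IPTG and 5 mM 3-AT, for 48 hours at 37°C. Illumina sequencing covered plasmids before and after selection; three replicate libraries were pooled and variants with under 10 reads dropped. A fitness score is the log change in variant-to-wild-type read ratio, rescaled to the cognate and non-cognate references.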
As for FNRL, the “one-hybrid fitness for binding NBS DNA” value is not above 0.2. Take NHPC: the “one-hybrid fitness for binding NBS DNA” value is not above 0.2.

On to LTGS, for which the “one-hybrid fitness for binding NBS DNA” value was not above 0.2. On to KGFR, for which the “one-hybrid fitness for binding NBS DNA” value was not above 0.2. In the case of YAVQ, the “one-hybrid fitness for binding NBS DNA” value was not above 0.2. Then GVTG, with not above 0.2; and PQDT, with not above 0.2. For the variant RMFF, the “one-hybrid fitness for binding NBS DNA” value was not above 0.2. On to MLSL, for which the “one-hybrid fitness for binding NBS DNA” value was not above 0.2. Consider MANI, for which the “one-hybrid fitness for binding NBS DNA” value was not above 0.2. With RCKW the figure was not above 0.2; with QIIL, not above 0.2. HRCP: the “one-hybrid fitness for binding NBS DNA” value was not above 0.2. For the variant QLVK, the “one-hybrid fitness for binding NBS DNA” value was not above 0.2. As for SNSM, the “one-hybrid fitness for binding NBS DNA” value was not above 0.2. As to AARR, the “one-hybrid fitness for binding NBS DNA” value was not above 0.2. On to RQEF, for which the “one-hybrid fitness for binding NBS DNA” value is not above 0.2. Take RFTT: the “one-hybrid fitness for binding NBS DNA” value was 0.269. With VAEG, the “one-hybrid fitness for binding NBS DNA” value is not above 0.2. Consider FSLD, for which the “one-hybrid fitness for binding NBS DNA” value was not above 0.2. As for PHFA, the “one-hybrid fitness for binding NBS DNA” value was not above 0.2. NKPR: the “one-hybrid fitness for binding NBS DNA” value is not above 0.2.

For the variant TFKT, the “one-hybrid fitness for binding NBS DNA” value is not above 0.2. With QSCD, the “one-hybrid fitness for binding NBS DNA” value was not above 0.2. For the variant YINW, the “one-hybrid fitness for binding NBS DNA” value is not above 0.2. As for LDPP, the “one-hybrid fitness for binding NBS DNA” value was not above 0.2.

Turning to AGVE, the “one-hybrid fitness for binding NBS DNA” value is not above 0.2. Consider MLHL, for which the “one-hybrid fitness for binding NBS DNA” value was not above 0.2. With ACER, the “one-hybrid fitness for binding NBS DNA” value was not above 0.2. Regarding TCGT, the “one-hybrid fitness for binding NBS DNA” value is not above 0.2.

For the variant CLEC, the “one-hybrid fitness for binding NBS DNA” value is not above 0.2. In the case of KSTG, the “one-hybrid fitness for binding NBS DNA” value is not above 0.2. With PAVG the figure was not above 0.2.

FWAT: the “one-hybrid fitness for binding NBS DNA” value is not above 0.2. As for MMDR, the “one-hybrid fitness for binding NBS DNA” value was not above 0.2. As for WTPL, the “one-hybrid fitness for binding NBS DNA” value was not above 0.2. Consider ISWG, for which the “one-hybrid fitness for binding NBS DNA” value is not above 0.2. In the case of MNES, the “one-hybrid fitness for binding NBS DNA” value is not above 0.2. Turning to RYRM, the “one-hybrid fitness for binding NBS DNA” value was determined as 0.213.

On to EWGE, for which the “one-hybrid fitness for binding NBS DNA” value was not above 0.2. Regarding YGLG, the “one-hybrid fitness for binding NBS DNA” value was not above 0.2. Consider RRPC, for which the “one-hybrid fitness for binding NBS DNA” value is 0.249. Then MMKW, with not above 0.2. Then IYWV, with not above 0.2; and SHNF, with not above 0.2.

In the case of CMAR, the “one-hybrid fitness for binding NBS DNA” value is not above 0.2. On to VPPW, for which the “one-hybrid fitness for binding NBS DNA” value is not above 0.2. Then HPLS, with not above 0.2; and GSAQ, with not above 0.2; and PVGS, with not above 0.2. As for SPQG, the “one-hybrid fitness for binding NBS DNA” value is not above 0.2.

For AWAV, the “one-hybrid fitness for binding NBS DNA” value was not above 0.2. With EECL the figure was not above 0.2; with GCLA, not above 0.2; with PNTY, not above 0.2.

As for DQMG, the “one-hybrid fitness for binding NBS DNA” value is not above 0.2. Take PTHT: the “one-hybrid fitness for binding NBS DNA” value was not above 0.2. Take QQSV: the “one-hybrid fitness for binding NBS DNA” value is not above 0.2.

On to NVYP, for which the “one-hybrid fitness for binding NBS DNA” value was not above 0.2. With DKLW the figure was not above 0.2; with PPFN, not above 0.2; with DSPF, not above 0.2. Take HHWF: the “one-hybrid fitness for binding NBS DNA” value is not above 0.2. For KGRC, the “one-hybrid fitness for binding NBS DNA” value is not above 0.2.

With IGIR, the “one-hybrid fitness for binding NBS DNA” value was not above 0.2. YNSF: the “one-hybrid fitness for binding NBS DNA” value is not above 0.2. THGV: the “one-hybrid fitness for binding NBS DNA” value is not above 0.2. Take NDES: the “one-hybrid fitness for binding NBS DNA” value was not above 0.2. In the case of RSFE, the “one-hybrid fitness for binding NBS DNA” value is not above 0.2. In the case of GNAG, the “one-hybrid fitness for binding NBS DNA” value was not above 0.2. Then GHPH, with not above 0.2; and QHSE, with not above 0.2. Then SRIY, with not above 0.2. Consider ICTW, for which the “one-hybrid fitness for binding NBS DNA” value is not above 0.2. In the case of CPTR, the “one-hybrid fitness for binding NBS DNA” value was not above 0.2. For the variant WWAR, the “one-hybrid fitness for binding NBS DNA” value was not above 0.2. On to TACR, for which the “one-hybrid fitness for binding NBS DNA” value is not above 0.2.

Consider RLQI, for which the “one-hybrid fitness for binding NBS DNA” value was not above 0.2. Take GPPR: the “one-hybrid fitness for binding NBS DNA” value was not above 0.2. As to QSMG, the “one-hybrid fitness for binding NBS DNA” value was not above 0.2.

PWNT: the “one-hybrid fitness for binding NBS DNA” value was not above 0.2.

Regarding NLID, the “one-hybrid fitness for binding NBS DNA” value was not above 0.2. On to HTWF, for which the “one-hybrid fitness for binding NBS DNA” value is not above 0.2.

For LPEW, the “one-hybrid fitness for binding NBS DNA” value was not above 0.2. Take MAMR: the “one-hybrid fitness for binding NBS DNA” value was not above 0.2. For the variant VPVG, the “one-hybrid fitness for binding NBS DNA” value is not above 0.2.

Turning to FRWR, the “one-hybrid fitness for binding NBS DNA” value is not above 0.2. Regarding YSCK, the “one-hybrid fitness for binding NBS DNA” value was not above 0.2. With YHYY, the “one-hybrid fitness for binding NBS DNA” value is not above 0.2. Take ATKM: the “one-hybrid fitness for binding NBS DNA” value is not above 0.2. With TFVI the figure was not above 0.2. Turning to RDPY, the “one-hybrid fitness for binding NBS DNA” value is not above 0.2. As to TNMS, the “one-hybrid fitness for binding NBS DNA” value is not above 0.2. As for HKNN, the “one-hybrid fitness for binding NBS DNA” value is not above 0.2. Regarding KRMV, the “one-hybrid fitness for binding NBS DNA” value is not above 0.2. For the variant PNWD, the “one-hybrid fitness for binding NBS DNA” value is not above 0.2.

As for TRKV, the “one-hybrid fitness for binding NBS DNA” value is 0.208.

Take LQDS: the “one-hybrid fitness for binding NBS DNA” value is not above 0.2. With PDER the figure was not above 0.2; with EHTG, not above 0.2. As to DAAV, the “one-hybrid fitness for binding NBS DNA” value was not above 0.2.

Turning to AILE, the “one-hybrid fitness for binding NBS DNA” value is not above 0.2. As for KRQR, the “one-hybrid fitness for binding NBS DNA” value amounted to 0.552. PCMR: the “one-hybrid fitness for binding NBS DNA” value was not above 0.2. With LAVL the figure was not above 0.2; with VHMS, not above 0.2; with DYPY, not above 0.2. For SRNT, the “one-hybrid fitness for binding NBS DNA” value was 0.236.

In the case of RALN, the “one-hybrid fitness for binding NBS DNA” value was not above 0.2.

As to VVWT, the “one-hybrid fitness for binding NBS DNA” value was not above 0.2.

Take EQSW: the “one-hybrid fitness for binding NBS DNA” value is not above 0.2. Then YEDL, with not above 0.2; and WRFC, with not above 0.2; and TKKF, with not above 0.2. On to HQHC, for which the “one-hybrid fitness for binding NBS DNA” value is not above 0.2. On to PRPR, for which the “one-hybrid fitness for binding NBS DNA” value is not above 0.2.

Take SRGD: the “one-hybrid fitness for binding NBS DNA” value is not above 0.2.

As for SSMI, the “one-hybrid fitness for binding NBS DNA” value was not above 0.2.

With ENPS, the “one-hybrid fitness for binding NBS DNA” value is not above 0.2. Regarding PSLN, the “one-hybrid fitness for binding NBS DNA” value is not above 0.2.

For QQCN, the “one-hybrid fitness for binding NBS DNA” value was not above 0.2. Then HHSV, with not above 0.2.

With MTIS, the “one-hybrid fitness for binding NBS DNA” value was not above 0.2.

Turning to LETG, the “one-hybrid fitness for binding NBS DNA” value was not above 0.2.

With RPVK, the “one-hybrid fitness for binding NBS DNA” value was not above 0.2. For the variant GSTL, the “one-hybrid fitness for binding NBS DNA” value was not above 0.2. With RCDY the figure was not above 0.2; with AHTQ, not above 0.2. Turning to MGKG, the “one-hybrid fitness for binding NBS DNA” value was not above 0.2. With LTWR the figure was not above 0.2; with RTQD, not above 0.2; with HAHR, not above 0.2. As to RPKY, the “one-hybrid fitness for binding NBS DNA” value was not above 0.2.

In the case of DVKA, the “one-hybrid fitness for binding NBS DNA” value was not above 0.2. With DHGF, the “one-hybrid fitness for binding NBS DNA” value was not above 0.2.

For TSYD, the “one-hybrid fitness for binding NBS DNA” value is not above 0.2. With ALQR the figure was not above 0.2; with HSFF, not above 0.2; with RSVT, 0.238.

For the variant RVGW, the “one-hybrid fitness for binding NBS DNA” value was not above 0.2. Consider KHYN, for which the “one-hybrid fitness for binding NBS DNA” value is not above 0.2. Regarding YSRR, the “one-hybrid fitness for binding NBS DNA” value is not above 0.2.

Consider EALN, for which the “one-hybrid fitness for binding NBS DNA” value is not above 0.2. With TAPF the figure was not above 0.2; with SPKG, not above 0.2; with LAQG, not above 0.2. GKIR: the “one-hybrid fitness for binding NBS DNA” value was not above 0.2. Regarding LKKN, the “one-hybrid fitness for binding NBS DNA” value was not above 0.2.

For WDHG, the “one-hybrid fitness for binding NBS DNA” value was not above 0.2. Turning to IRLV, the “one-hybrid fitness for binding NBS DNA” value is not above 0.2. Then NRGC, with not above 0.2; and YEVG, with not above 0.2; and GVTP, with not above 0.2.
